The text below walks through data of the RNAGym collection of RNA variant scans (doi:10.7554/elife.90254).

The labels stand for the following.
B1: LINE1-mini (parent)
chain: GGCAGAGCUCAACACAGCGUGGCAAAGUGGCUGUGGCUAGACUGCC

The source gives no read counts; variants with many changes may rest on few reads.

The variants in this data set derive from B1. Put plainly: self-cleavage, relative activity (ratio to wild type); higher = more cleavage; in vitro, sequencing; the parent is a self-cleaving ribozyme.
Take GGGAGAGCUCAACACAGCGUGACAAAGUUGCUGUGGCUAGACUGCA [C3G G22A G29U C46A]: the self-cleavage was 0.08.

With GGGAGAUCUCAACACAGCGUGACAAAGUGGCUGUGGCUAGACUGCC [C3G G7U G22A], the self-cleavage was determined as 0.06.

GGGAGAGCUCAACACAACAUGGCAAUGUGGCUGUGGCUCGACUGUC [C3G G17A G19A A26U A39C C45U]: the self-cleavage was 0.01.

With GGGAGAACUCAACACAGCGUGUCAAAGUGGCUGUGGCUAGACUGAC [C3G G7A G22U C45A], the self-cleavage stood at 0.2.

For GGGAGAUCUCAACACAGCGUGGCAAAGUGGCUGUGGUUAGACUGCC [C3G G7U C37U], the self-cleavage is 0.04.

Regarding GGGAAAGCUAAACACAGCGUGGCAAAGUGUCGGUGGCAAGACUGCC [C3G G5A C10A G30U U32G U38A], the self-cleavage came to 0.03.

As for GGGAUAGCUCAACACAGCGUGGCAAAGUGGCUGUGGCUAGAGUGCC [C3G G5U C42G], the self-cleavage was found to be 0.04.

With GGGAGAGCUCAACACAACGUGUCAAAGUGGCUGUGGCUAGACUGCA [C3G G17A G22U C46A], the self-cleavage came out at 0.14.

For the variant GGGAGAGCUCAACACAGCUUGGCAUAGUGGCUGUAGCUAGCCUGCC [C3G G19U A25U G35A A41C], the self-cleavage was determined as 0.03.

In the case of GGGAGAGCUCAACACAGCGUCGCAAAGUGGCUGCGGCUAGACGGCC [C3G G21C U34C U43G], the self-cleavage worked out at 0.02.

Regarding GGGAGAGCUCAACACAGGGUGGCAAAGUGGCUGUGGCUAGACGGCC [C3G C18G U43G], the self-cleavage came out at 0.11.

As to GGGAGAGCUCAACACAGCGUGGCAAAGUGACUGUGCCUAGACGGCC [C3G G30A G36C U43G], the self-cleavage was determined as 0.09.

With GGGAUAGCUCAACACAGCGUGGCAGAGUGGAUGUGGCUAGACUGGC [C3G G5U A25G C31A C45G], the self-cleavage was 0.09.

Regarding GGGAGAGCUCAACACACUGCGGCAAAGUGGCUGUGGCUAGACUGCC [C3G G17C C18U U20C], the self-cleavage turned out to be 0.04.

For GGGAGAGCUCAACACAGCGUGGCAAAGUGCCUGUGGUUAGACUGCC [C3G G30C C37U], the self-cleavage worked out at 0.52.

Turning to GGGAGAGCUCAACACAGCGUGUCAAAGUGACUGUGGCGAGACUGCC [C3G G22U G30A U38G], the self-cleavage is 0.66.

Consider GGGAAAGCUCAACACAGCGUGGCAAAGUAUCUGUGGCUAGACUGCC [C3G G5A G29A G30U], for which the self-cleavage was 0.21.

As to GGGAGAGCUCAACACAACGUGGCAAAGUGGCUGUGACUAGACUGCC [C3G G17A G36A], the self-cleavage turned out to be 0.5.

With GGGAGAGCUCAACACAGCGUGGGAAAGUGGCCGUGGCUAGACUGCC [C3G C23G U32C], the self-cleavage stood at 0.05.

Consider GGGAGAGCUCAACACACCGUGGCAAAGUGGCUGUGGCUAUACUGCC [C3G G17C G40U], for which the self-cleavage was determined as 0.07.

On to GGGAGAGCUCAACACAGCGUCGCAAAGCCGCUGUGGCUAGACUGCA [C3G G21C U28C G29C C46A], for which the self-cleavage was 0.08.

Consider GGGAGAGCUCAACACAUCGUGGCAGUGUGGCUGUGGCUAGACUGCC [C3G G17U A25G A26U], for which the self-cleavage is 0.13.

For the variant GGGAGAGCUCAACACAGCGUAGCAAAGUGGCUGUGGUUAGACUGCC [C3G G21A C37U], the self-cleavage worked out at 0.08.

For the variant GGGAGAGCUCAACACAGCGUAGCAAAGUGGCUGUGGCUAGACUGUA [C3G G21A C45U C46A], the self-cleavage is 0.73.

For GGGAGAGCUCAACACAGCGUGGCAAAGUCGAUGUGGCUAGACUGCC [C3G G29C C31A], the self-cleavage worked out at 0.09.

Consider GGGAAAGCUCAACACAGCGUGGCAAAGUGGCCGUGGCUAGACUGCC [C3G G5A U32C], for which the self-cleavage came to 0.12.

In the case of GGGAGACCUCAACACAGAGUGGCAAAGUGGCUGGGGCUAGACUGCC [C3G G7C C18A U34G], the self-cleavage came to 0.03.

For the variant GGGAGAGCUCAACACAGCCCGACAAAGUGGCUGUGGCUAGACUGCC [C3G G19C U20C G22A], the self-cleavage is 0.22.

For the variant GGGAGAGCUCAACACAUCCUUGCCAAGUGGCUGUCGCUAGACUGCC [C3G G17U G19C G21U A24C G35C], the self-cleavage turned out to be 0.19.

As to GGGAGAGCUCAACACAGCGUGGCAAACUGGCUGUGGCUAGAUUGCC [C3G G27C C42U], the self-cleavage amounted to 0.28.

For GGGAGAGCUCAACACAGCGUGGCAAAGUGGCUUUGGGUAGACUUCC [C3G G33U C37G G44U], the self-cleavage was 0.

For the variant GGGAGAGCUCAACACAGCGUGGAAAAGUGGCAGAGGAUCGACUGCC [C3G C23A U32A U34A C37A A39C], the self-cleavage was determined as 0.05.

For the variant GGGAUAGCUCACCACAGCGUGGCAAAGUGGCUGUGGCUAGAGUGCG [C3G G5U A12C C42G C46G], the self-cleavage stood at 0.01.

As for GGGAGAGCUCAACACAGCGUGGCAAAGUAGCUGUGGCAUGACUGCC [C3G G29A U38A A39U], the self-cleavage was found to be 0.09.

Turning to GGGAUAGCACAACACAGCGUGGCAAAGUGGCUGUGGCUAGGCUGCC [C3G G5U U9A A41G], the self-cleavage came out at 0.09.

With GGGAGAGCUCAACACAGCGUGGCAAAGUGGAUGUGGCUAGACUGAA [C3G C31A C45A C46A], the self-cleavage is 0.02.

Regarding GGGAGAGCUCAACACAGCGUGGCAAAGUUGCUGUUGCUAGACUGCC [C3G G29U G35U], the self-cleavage was 0.23.

Consider GGGAGAUCUCCACAUAGCGUGGCAAAGUGGCUGUGGCUAGAGUGCC [C3G G7U A11C C15U C42G], for which the self-cleavage amounted to 0.01.

Regarding GGGAGAGCUCAACACAGUGUGGCAAAGUGGAUGUGAUUAGACUGCC [C3G C18U C31A G36A C37U], the self-cleavage was 0.24.

Take GGGAGAGCUCAACACAGCGUGGCAAAGUGUCUGUGGCUAGACUCCC [C3G G30U G44C]: the self-cleavage turned out to be 0.93.

With GGGAAAGCUCAACACAUCGUGGUAAUGUGGCUGUGGCUAGAGUGCC [C3G G5A G17U C23U A26U C42G], the self-cleavage was 0.15.

Consider GGGAGAGCUCAACACAGCGUGGCAAAGUGGCUCUGGCUAGACUACC [C3G G33C G44A], for which the self-cleavage amounted to 0.07.

Turning to GGGAGAGCUCAACACAGCGUGGCAAAUUGGCUGUGGCUAGACUGCA [C3G G27U C46A], the self-cleavage is 0.1.

On to GGGAGAGCUCAACACAGCGUGGCAAAGUGGCUUUGGCUGGACUGCC [C3G G33U A39G], for which the self-cleavage stood at 0.75.

For GGGAGAGCUCAACACAGCUUGGCACAGUGGAUGUGGCUAGAAUGCC [C3G G19U A25C C31A C42A], the self-cleavage is 0.1.

Consider GGGAGAUCUCAACUCAGCGUGGUAAAGUGGCUGUGGCUAGACUGCC [C3G G7U A14U C23U], for which the self-cleavage turned out to be 0.77.

With GGGACAGCUCAACGCAGCGUGGCAAAGUGGCUGUGGCUAGACUGGC [C3G G5C A14G C45G], the self-cleavage was 0.08.

Turning to GGGAGAGCUCAACACAGCGUGGCAAAGUAGCUGUGGCUAGGCUGCU [C3G G29A A41G C46U], the self-cleavage was found to be 0.06.

Regarding GGGAGAGCUCAACACAGCGUGGCAAAGUGGGUGUGGCUAAACUGCC [C3G C31G G40A], the self-cleavage was determined as 0.19.

On to GGGAGAGCUCAACACAGGGUUGCAAAGUGGCUGUGGCUAGACUGCC [C3G C18G G21U], for which the self-cleavage was found to be 0.06.

As to GGGAGAGCUCAACACAGUGUGGCAAAGUGGCUGUGGCCAGACUGCC [C3G C18U U38C], the self-cleavage is 0.

On to GGGAGAGCUCAACACAGCGUACCAAAGUGGCUGUGGAUAGACUCCC [C3G G21A G22C C37A G44C], for which the self-cleavage was 0.01.

Consider GGGAGAGCUCAACACAGCGUCGCAAAGUGGCUGUCGCUAGACUGCC [C3G G21C G35C], for which the self-cleavage was 0.13.

For GGGAGAGCUCAACACAGCGUGGCAAAGUGGCUGUGGCUAGAAUACC [C3G C42A G44A], the self-cleavage is 0.08.

As for GGGAGAGCUCAACACAGUGUGGCAAAGUGGCUUUGGACAGACUUCC [C3G C18U G33U C37A U38C G44U], the self-cleavage is 0.03.

On to GGGAGAGCUCAACACAGGGUGGCAAAGUGGCUCUGGCUAGACUGCC [C3G C18G G33C], for which the self-cleavage turned out to be 0.05.
